The whole screen tested about 150,000 compounds, of which about 540 (0.36%) showed an effect of 50% or more. Some of the results follow.

The test has as its system Plasmodium falciparum. Nature of the test: Primary screen in NF54 nanoGlo assay, in single point, at 2uM, 72h; a lower Z score goes with more inhibition. Type of test: functional, Erythrocyte. The settings on record: timepoint 72 hour.
On to `CC(NCc1csc(-c2ccccn2)n1)C1CC2CCC1C2` (stereo unspecified), for which the % Inhibition (commonly the relative decrease from the control value, in per cent) was determined as 4% and the Z score is -0.33.
As to `O=C(c1snc(O)c1Cl)N1CC(C2CC2)C1C1CC1` (stereo unspecified), the “% Inhibition” value is on record as -12% and the Z score was 1.53.
Take `C=CCN(Cc1cccc(C(=O)NC)c1)S(=O)(=O)C(C)(C)C`: the “% Inhibition” value came to 10% and the Z score is -1.16.
For the compound `Cc1cc(C)n(-c2ccc(CCNS(=O)(=O)[C@H]3CCOC3)cc2)n1`, the “% Inhibition” value is on record as -8% and the Z score came to 0.72.
With `Cn1cnnc1-c1cncc(NS(=O)(=O)Cc2ccccc2)c1`, the “% Inhibition” value is reported as -5% and the Z score is 0.58.
On to `Cc1ncc2n1C[C@@H](C(=O)NCc1ccccc1)CC2`, for which the “% Inhibition” value is -1% and the Z score turned out to be 0.25.
For `COC1(CNC(=O)NC[C@H](O)c2cc(C)cc(C)c2)CCOCC1` the same measures were 6% and -0.79.
As for `C=CC[C@]1(C(=O)O)CCCN(C(=O)CC2CCC2)C1`, the “% Inhibition” value was found to be 2% and the Z score is on record as -0.32.
In the same order, the values of `Cc1n[nH]cc1CNC(=O)N1CCCC2(CCCCC2)C1` are -15% and 2.
As for `Cc1ccc(C)c(Cn2c(C(=O)NCc3ccccn3)cc3oc(C)cc32)c1`, the “% Inhibition” value was -3% and the Z score is on record as 0.3.
Take `CC(C)Cc1nc(CNC(=O)Cc2ccncc2)no1`: the “% Inhibition” value is -4% and the Z score turned out to be 0.54.
In the same order, the values of `CC(C)Cc1cc(CNC(=O)CN2CCCCCCC2)on1` are -5% and 0.94.
As for `O=C(Cn1ccc2ccccc21)N1CCO[C@H](c2ccccc2)C1`, the “% Inhibition” value is reported as 0% and the Z score is listed as 0.03.
Turning to `O=C(c1ccc(-c2ccccc2F)o1)N1CCOC2(CCC2)C1`, the “% Inhibition” value is reported as -13% and the Z score stood at 1.45.
For the compound `Cc1cc(CNC2CCN(S(C)(=O)=O)CC2)c(C)n1-c1cc(Cl)cc(Cl)c1`, the “% Inhibition” value is -9% and the Z score is given as 1.24.
As for `OC1(c2ccccn2)CCNCC1N1CC[C@H](Oc2ccccc2)C1` (stereo partly specified), the “% Inhibition” value is 4% and the Z score is given as -0.71.
For `O=C(Nc1nc2c(ccc3ccccc32)s1)c1cc(-c2ccccc2)nc2ccccc12` the same measures were -12% and 2.13.
For `COc1ccc(-c2ccnc3cc(C(=O)Nc4ccc(C)cc4)nn23)cc1OC` the same measures were -17% and 1.69.
Turning to `COCCNC(=O)CCn1cnc2c(-c3ccc(F)cc3)noc2c1=O`, the “% Inhibition” value turned out to be 1% and the Z score was -0.09.
Take `O=C(CC1CCCC1)NCCN1C(=O)COC1=O`: the “% Inhibition” value is on record as 13% and the Z score is given as -1.67.
For `CC(C)c1nnc(NC(=O)CCCc2ccccc2)s1` the same measures were -11% and 2.07.
As to `CCN1CCN(C(=O)Cn2cc(S(=O)(=O)c3ccc(C)cc3)c3ccccc32)CC1`, the “% Inhibition” value is given as -18% and the Z score is 2.33.
Turning to `CC(C)Oc1ccc(C(=O)N2[C@@H]3CC[C@H]2CC(NC(=O)c2ccc(F)cc2)C3)cc1` (stereo partly specified), the “% Inhibition” value is listed as -10% and the Z score amounted to 1.79.
For `Cc1ccc(CC2(NC(=O)CN3CCOC3=O)CC2)cc1` the same measures were 1% and -0.13.
For `O=C(N[C@H]1CCOc2ccccc21)C1CCC1` the same measures were -1% and 0.18.
Regarding `O=C(NCC1CCN(C2Cc3ccccc3C2)CC1)c1ccncn1`, the “% Inhibition” value is on record as 1% and the Z score was -0.18.
Take `CCc1nnc(COC(=O)c2csc(NC)n2)o1`: the “% Inhibition” value turned out to be 33% and the Z score was -1.12.
In the same order, the values of `Cc1ccc(C(=O)NCC2CCCCC2)c(C2CCN(Cc3cc(C)c(C)o3)CC2)n1` are -3% and 0.28.
For `CCc1ccc(-c2c[nH]c(NC(=O)[C@]3(OC)CCOC3)n2)cc1` the same measures were 5% and -0.59.
In the case of `CC(CS(C)(=O)=O)N(C)C(=O)C1CCCC2CCCCC21` (stereo unspecified), the “% Inhibition” value is recorded as -9% and the Z score is given as 1.28.
On to `CCOc1cc(CN2CCC([C@]3(Cc4cccc(OC)c4)NC(=O)N(C)C3=O)CC2)ccc1O`, for which the “% Inhibition” value is 10% and the Z score is reported as -1.46.
Turning to `COc1ccc(C[C@@](C)(CO)NC(=O)c2cccn(C3CC3)c2=O)cc1`, the “% Inhibition” value was -6% and the Z score is reported as 0.98.
On to `Cc1nc(-c2nnn(-c3ccc(F)cc3)c2C)sc1C(=O)NCc1ccccc1`, for which the “% Inhibition” value is recorded as -5% and the Z score is on record as 0.91.
On to `O=C(NCc1ccc(Cl)s1)[C@H]1CCC(=O)N(C2CCCCCC2)C1`, for which the “% Inhibition” value is -2% and the Z score turned out to be 0.31.
For `CCCc1cc(C(=O)NC2CCN(C3CCS(=O)(=O)CC3)CC2)[nH]n1` the same measures were -14% and 1.45.
Turning to `Cc1cc(N(C)Cc2cnn(C)c2)ncc1Br`, the “% Inhibition” value was 8% and the Z score is -0.96.
Regarding `Cc1cc(CN[C@H]2CCc3cn[nH]c3C2)c2c(n1)CCCC2`, the “% Inhibition” value is recorded as -2% and the Z score was determined as 0.33.
In the case of `Clc1ccccc1CNCC#Cc1ccccc1`, the “% Inhibition” value was determined as 31% and the Z score was -0.57.
In the same order, the values of `COc1ccc(-c2cc(C(=O)NC[C@H]3CCCO3)on2)cc1OC` are -1% and 0.2.
As to `CO[C@@]1(C)C[C@@H](O)C12CCN(C(=O)c1scc3c1CCCC3)CC2`, the “% Inhibition” value is 11% and the Z score is on record as -1.93.
Regarding `Cc1ccc(C(=O)CCC(=O)NCC2(c3ccc4c(c3)OCO4)CCOCC2)cc1C`, the “% Inhibition” value was -9% and the Z score is 1.68.
Take `CC(=O)Nc1cccc(CN(CCC(N)=O)c2ccc(F)cc2)c1`: the “% Inhibition” value is recorded as -5% and the Z score was 0.59.
With `CC(C)(C)c1nnc(CNC(=O)[C@@H]2CCCc3ccccc32)s1`, the “% Inhibition” value is given as -6% and the Z score was found to be 0.61.

These data come from ChEMBL document CHEMBL4888484, “Replenishing the malaria drug discovery pipeline: Screening and hit evaluation of the MMV Hit Generation Library 1 (HGL1) against asexual blood stage Plasmodium falciparum ,using a nano luciferase reporter read-out” (2022).
